Source: the supplement of paper PMC10369915
The other results are listed elsewhere or left out. Cut-off read from the data, not from the text of the source: active = 3.2 or more and inactive = the rest. The signal is at background level for most entries.

Legend:
Test in all cases: enrichment score (SH2-bound / input frequency) (ratio); bacterial display of known human phosphotyrosine sites (pTyr-Var adds point mutants) read by sequencing; higher = stronger binding; tyrosines were phosphorylated by kinases first
Conditions in all cases: peptide library: Human pTyr
SHP2 C-SH2 domain E139D = target: SHP2 C-SH2 domain E139D
[1] = target: SHP2 C-SH2 domain wild-type
SHP2 N-SH2 domain L43F = target: SHP2 N-SH2 domain L43F
SHP2 N-SH2 domain T42A = target: SHP2 N-SH2 domain T42A
SHP2 N-SH2 domain T52S = target: SHP2 N-SH2 domain T52S
[2] = target: SHP2 N-SH2 domain wild-type

Measured: enrichment score
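Note: displayed peptides selected on beads carrying the immobilized SH2 domain, with library peptides lacking any tyrosine serving as negative controls.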

B1: GRIN2A_HUMAN_1184_YA (peptide)
chain: GLSNNDQYKLASKHF
inactive: SHP2 C-SH2 domain E139D 0.875 | [1] 0.768 | SHP2 N-SH2 domain L43F 0.766 | SHP2 N-SH2 domain T42A 0.838 | SHP2 N-SH2 domain T52S 0.828 | [2] 0.987

B2: GRIN2A_HUMAN_1187_YA (peptide)
chain: NNDQAKLYSKHFTLK
inactive: SHP2 C-SH2 domain E139D 1.07 | [1] 0.859 | SHP2 N-SH2 domain L43F 1.07 | SHP2 N-SH2 domain T42A 0.933 | SHP2 N-SH2 domain T52S 0.973 | [2] 0.816

B3: GTF2I_HUMAN_248_YA (peptide)
chain: EESEDPDYAQANIQA
inactive: SHP2 C-SH2 domain E139D 1.49 | [1] 1.13 | SHP2 N-SH2 domain L43F 1.34 | SHP2 N-SH2 domain T42A 1.3 | SHP2 N-SH2 domain T52S 1.31 | [2] 1.42

B4: GRIA3_HUMAN_887 (peptide)
chain: YREGYNVYGTESVKI
inactive: SHP2 C-SH2 domain E139D 0.78 | [1] 0.552 | SHP2 N-SH2 domain L43F 0.823 | SHP2 N-SH2 domain T42A 0.566 | SHP2 N-SH2 domain T52S 0.532 | [2] 0.658

B5: GRB2_HUMAN_52 (peptide)
chain: DGFIPKNYIEMKPHP
inactive: SHP2 C-SH2 domain E139D 0.811 | [1] 0.512 | SHP2 N-SH2 domain L43F 1.26 | SHP2 N-SH2 domain T42A 0.645 | SHP2 N-SH2 domain T52S 0.566 | [2] 0.856

B6: GSTP1_HUMAN_4 (peptide)
chain: GGGGMPPYTVVYFPV
inactive: SHP2 C-SH2 domain E139D 1.98 | [2] 2.53
active: [1] 4.07 | SHP2 N-SH2 domain L43F 15 | SHP2 N-SH2 domain T42A 16.2 | SHP2 N-SH2 domain T52S 9.3

B7: HCK_HUMAN_209 (peptide)
chain: TLDNGGFYISPRSTF
inactive: SHP2 C-SH2 domain E139D 0.748 | [1] 0.604 | SHP2 N-SH2 domain L43F 0.707 | SHP2 N-SH2 domain T42A 0.677 | SHP2 N-SH2 domain T52S 0.712 | [2] 0.662

B8: GRIA2_HUMAN_876_YA (peptide)
chain: AKEGANVYGIESVKI
inactive: SHP2 C-SH2 domain E139D 0.586 | [1] 0.666 | SHP2 N-SH2 domain L43F 0.659 | SHP2 N-SH2 domain T42A 0.582 | SHP2 N-SH2 domain T52S 0.723 | [2] 0.549

B9: GPDM_HUMAN_601 (peptide)
chain: TARKFLYYEMGYKSR
active: SHP2 C-SH2 domain E139D 3.46 | [1] 3.53 | SHP2 N-SH2 domain L43F 3.37 | SHP2 N-SH2 domain T42A 3.5 | [2] 3.68
inactive: SHP2 N-SH2 domain T52S 2.97

B10: H2AX_HUMAN_143 (peptide)
chain: ATQASQEYGGGGGGG
inactive: SHP2 C-SH2 domain E139D 0.907 | [1] 0.518 | SHP2 N-SH2 domain L43F 0.823 | SHP2 N-SH2 domain T42A 0.552 | SHP2 N-SH2 domain T52S 0.736 | [2] 0.682

B11: GRIN2A_HUMAN_1105 (peptide)
chain: CSEVERTYLKTKSSS
inactive: SHP2 C-SH2 domain E139D 1.31 | [1] 0.908 | SHP2 N-SH2 domain L43F 1.22 | SHP2 N-SH2 domain T42A 1.07 | SHP2 N-SH2 domain T52S 1.08 | [2] 1.2

B12: GTF2I_HUMAN_249_YA (peptide)
chain: ESEDPDAYQANIQAG
inactive: SHP2 C-SH2 domain E139D 1.05 | [1] 0.792 | SHP2 N-SH2 domain L43F 0.821 | SHP2 N-SH2 domain T42A 0.876 | SHP2 N-SH2 domain T52S 1.01 | [2] 1.1

B13: GSTP1_HUMAN_199 (peptide)
chain: AFLASPEYVNLPING
inactive: SHP2 C-SH2 domain E139D 1.29 | [1] 1.2 | SHP2 N-SH2 domain L43F 1.23 | SHP2 N-SH2 domain T42A 1.3 | SHP2 N-SH2 domain T52S 1.13 | [2] 1.68

B14: H3C_HUMAN_41 (peptide)
chain: CGVKPHRYRPGTVAL
inactive: SHP2 C-SH2 domain E139D 1.33 | [1] 1 | SHP2 N-SH2 domain L43F 0.981 | SHP2 N-SH2 domain T42A 1.13 | SHP2 N-SH2 domain T52S 1.1 | [2] 1.13

B15: H4_HUMAN_52 (peptide)
chain: KRISGLIYEETRGVL
inactive: SHP2 C-SH2 domain E139D 0.812 | [1] 0.731 | SHP2 N-SH2 domain L43F 0.964 | SHP2 N-SH2 domain T42A 0.794 | SHP2 N-SH2 domain T52S 0.767 | [2] 0.892

B16: GRIN2A_HUMAN_1118 (peptide)
chain: SSPRDKIYTIDGEKE
inactive: SHP2 C-SH2 domain E139D 1.13 | [1] 0.697 | SHP2 N-SH2 domain L43F 1.05 | SHP2 N-SH2 domain T42A 0.905 | SHP2 N-SH2 domain T52S 0.867 | [2] 0.847

B17: GRIN2A_HUMAN_1423 (peptide)
chain: SRGHNDVYISEHVMP
inactive: SHP2 C-SH2 domain E139D 0.684 | [1] 0.647 | SHP2 N-SH2 domain L43F 0.816 | SHP2 N-SH2 domain T42A 0.562 | SHP2 N-SH2 domain T52S 0.682 | [2] 0.659

B18: AKAP8_HUMAN_51 (peptide)
chain: SVTTGATYSYGPASW
inactive: SHP2 C-SH2 domain E139D 0.854 | [1] 0.865 | SHP2 N-SH2 domain L43F 0.754 | SHP2 N-SH2 domain T42A 0.792 | SHP2 N-SH2 domain T52S 0.787 | [2] 0.789

B19: GRAP2_HUMAN_45 (peptide)
chain: ELGSQEGYVPKNFID
inactive: SHP2 C-SH2 domain E139D 0.512 | [1] 0.485 | SHP2 N-SH2 domain L43F 0.591 | SHP2 N-SH2 domain T42A 0.442 | SHP2 N-SH2 domain T52S 0.441 | [2] 0.469

B20: GTF2I_HUMAN_249 (peptide)
chain: ESEDPDYYQYNIQAG
inactive: SHP2 C-SH2 domain E139D 1.36 | [1] 1.03 | SHP2 N-SH2 domain L43F 1.36 | SHP2 N-SH2 domain T42A 1.2 | SHP2 N-SH2 domain T52S 0.947 | [2] 1.45

B21: GOLI4_HUMAN_613 (peptide)
chain: EDNVDEQYQEEAEEE
inactive: SHP2 C-SH2 domain E139D 1.28 | [1] 1.12 | SHP2 N-SH2 domain L43F 1.15 | SHP2 N-SH2 domain T42A 1.13 | SHP2 N-SH2 domain T52S 1.42 | [2] 1.45

B22: AKAP8_HUMAN_146_YA (peptide)
chain: CLPEHNPYRPSASAD
inactive: SHP2 C-SH2 domain E139D 1.2 | [1] 1.05 | SHP2 N-SH2 domain L43F 0.977 | SHP2 N-SH2 domain T42A 1.1 | SHP2 N-SH2 domain T52S 0.93 | [2] 1.29

B23: GSTP1_HUMAN_8 (peptide)
chain: MPPYTVVYFPVRGRC
inactive: SHP2 C-SH2 domain E139D 0.745 | [1] 0.633 | SHP2 N-SH2 domain L43F 1.62 | SHP2 N-SH2 domain T42A 0.844 | SHP2 N-SH2 domain T52S 0.732 | [2] 0.775

B24: GRB7_HUMAN_338_YA (peptide)
chain: AAFRLFKYGVQLAKN
inactive: SHP2 C-SH2 domain E139D 1.56 | [1] 1.35 | SHP2 N-SH2 domain L43F 1.28 | SHP2 N-SH2 domain T42A 1.13 | SHP2 N-SH2 domain T52S 1.95 | [2] 2.15

B25: GRB7_HUMAN_338 (peptide)
chain: AAFRLFKYGVQLYKN
inactive: SHP2 C-SH2 domain E139D 1.57 | [1] 1.39 | SHP2 N-SH2 domain L43F 1.44 | SHP2 N-SH2 domain T42A 1.31 | SHP2 N-SH2 domain T52S 1.41 | [2] 1.72

B26: HCK_HUMAN_522 (peptide)
chain: YTATESQYQQQPGGG
inactive: SHP2 C-SH2 domain E139D 0.962 | [1] 0.487 | SHP2 N-SH2 domain L43F 0.554 | SHP2 N-SH2 domain T42A 0.663 | SHP2 N-SH2 domain T52S 0.576 | [2] 0.473

B27: GPD1L_HUMAN_328 (peptide)
chain: FPLFTAVYQICYESR
inactive: SHP2 C-SH2 domain E139D 1.77 | [1] 2 | SHP2 N-SH2 domain L43F 2.02 | SHP2 N-SH2 domain T42A 1.88 | SHP2 N-SH2 domain T52S 2.32 | [2] 2.28

B28: GRIA2_HUMAN_876 (peptide)
chain: YKEGYNVYGIESVKI
inactive: SHP2 C-SH2 domain E139D 0.766 | [1] 0.585 | SHP2 N-SH2 domain L43F 0.881 | SHP2 N-SH2 domain T42A 0.514 | SHP2 N-SH2 domain T52S 0.612 | [2] 1.38

B29: GPDA_HUMAN_326_YA (peptide)
chain: FPLFMAVYKVCAEGQ
inactive: SHP2 C-SH2 domain E139D 2.29 | [1] 2.24 | SHP2 N-SH2 domain L43F 2.07 | SHP2 N-SH2 domain T42A 1.87 | SHP2 N-SH2 domain T52S 2.29 | [2] 2.88

B30: GTF2I_HUMAN_318 (peptide)
chain: VTIEDDDYSPPSKRP
inactive: SHP2 C-SH2 domain E139D 0.657 | [1] 0.594 | SHP2 N-SH2 domain L43F 0.856 | SHP2 N-SH2 domain T42A 0.809 | SHP2 N-SH2 domain T52S 0.613 | [2] 0.501

B31: GRB7_HUMAN_188 (peptide)
chain: FRKNFAKYELFKSSP
inactive: SHP2 C-SH2 domain E139D 2.18 | [1] 1.66 | SHP2 N-SH2 domain L43F 1.75 | SHP2 N-SH2 domain T42A 1.4 | SHP2 N-SH2 domain T52S 1.81 | [2] 2.1

B32: GRB10_HUMAN_67 (peptide)
chain: NASLESLYSACSMQS
inactive: SHP2 C-SH2 domain E139D 0.856 | [1] 0.647 | SHP2 N-SH2 domain L43F 0.694 | SHP2 N-SH2 domain T42A 0.784 | SHP2 N-SH2 domain T52S 0.728 | [2] 0.72

B33: HAVR2_HUMAN_265_YA (peptide)
chain: IRSEENIYTIEENVA
inactive: SHP2 C-SH2 domain E139D 1.35 | [1] 1.75 | SHP2 N-SH2 domain L43F 1.43 | SHP2 N-SH2 domain T42A 1.12 | SHP2 N-SH2 domain T52S 1.64 | [2] 1.23

B34: GSDMD_HUMAN_37 (peptide)
chain: SSTGFQPYCLVVRKP
inactive: SHP2 C-SH2 domain E139D 0.99 | [1] 0.653 | SHP2 N-SH2 domain L43F 1.17 | SHP2 N-SH2 domain T42A 1.14 | SHP2 N-SH2 domain T52S 1 | [2] 0.834

B35: H4_HUMAN_89 (peptide)
chain: VTAMDVVYALKRQGR
inactive: SHP2 C-SH2 domain E139D 0.694 | [1] 0.558 | SHP2 N-SH2 domain L43F 0.657 | SHP2 N-SH2 domain T42A 0.629 | SHP2 N-SH2 domain T52S 0.584 | [2] 0.694

B36: GRIA3_HUMAN_887_YA (peptide)
chain: AREGANVYGTESVKI
inactive: SHP2 C-SH2 domain E139D 0.736 | [1] 0.648 | SHP2 N-SH2 domain L43F 0.642 | SHP2 N-SH2 domain T42A 0.641 | SHP2 N-SH2 domain T52S 0.662 | [2] 0.859
